# Assay results taken from PubChem BioAssay AID624296 (National Center for Advancing Translational Sciences (NCATS), 2012).
# In all, about 350,000 compounds went through this assay and about 9,900 (2.8%) were called active. The shares of active, inactive and inconclusive entries below differ from those in the screen. Calls come from the whole dose curve; as a rule, active = well fitted activation curve with a large enough effect; inconclusive = small, poorly fitted or top-dose-only effect; inactive = no such curve, though single readings can be large or run the other way. Potencies of inconclusive entries are left out as doubtful fits.
# Assay: A quantitative high throughput screen for small molecules that induce DNA re-replication in MCF 10a normal breast cells. For activity, positive = re-replication: % of control where 0% means no effect. Note: nearly all actives have a fitted effect of over 50% in size.
# Details: MCF 10A DNA re-replication, Hoechst nuclear intensity, 48 h; activity, positive = re-replication: at 46.1 µM (top of the series)
# Potency is the fitted concentration of half-maximal effect; tags give direction and shape of the fitted curve.
SMILES,Potency,"activity, positive = re-replication"
COc1ccc(C2CC(c3cccs3)n3nc(N)nc3N2)cc1 (stereo not given),"inconclusive [activator, single point]",
CNC(=O)c1ccsc1NC(=O)C1CCN(S(=O)(=O)c2ccc(Cl)s2)CC1,"inconclusive [activator, full curve, poor fit]",
Cc1ccc(OCCn2c(=S)[nH]c3ccccc32)c(C(C)C)c1,"inconclusive [activator, single point]",
O=C1/C(=C/c2ccccc2)SC(=S)N1C1CCS(=O)(=O)C1 (stereo not given),"inconclusive [activator, partial curve]",
O=C(CSc1nnc(-c2ccc(F)cc2)o1)Nc1ccc(S(=O)(=O)N2CCCCCC2)cc1,,inactive: 24.1%
Cc1ccc(-c2ccc(CCC(=O)O)o2)cc1,"inconclusive [activator, single point]",
OC(COc1ccccc1)CN1CCN(Cc2ccc3c(c2)OCO3)CC1 (stereo not given),,inactive: 6.4%
COc1ccc(-c2ccc(C#N)c(SCC(=O)Nc3sc4c(c3C#N)CCC4)n2)cc1OC,active: 2.91 µM,
Cc1cccc(C)c1NC(=O)c1sc(N)nc1-c1ccccc1,,inactive: -11.1%
COc1cccc(-c2cc(C(=O)Nc3ccc(N(C)C(C)=O)cc3)c3cc(Br)ccc3n2)c1,"inconclusive [activator, partial curve, poor fit]",
O=C(OCc1cc(=O)c(OC(=O)c2ccccc2)co1)c1ccccc1,,inactive: 1.68%
CC1=CC(C)(C)Nc2ccc(C)cc21,,inactive: -2.96%
CC1(C)Cc2c(C#N)c(SCc3nc4ccccc4[nH]3)nc(N3CCOCC3)c2CO1,"inconclusive [activator, partial curve, poor fit]",
Cn1c(CN2CCN(C(=O)c3ccccc3)CC2)nc2cc([N+](=O)[O-])ccc21,"inconclusive [activator, single point]",
CCN(CC)CCOC(=O)c1ccc([N+](=O)[O-])cc1,"inconclusive [activator, single point]",
COc1cccc(C(=O)/C=C2\Sc3ccccc3N2C)c1,active: 18.4 µM,
Cc1cc(C)nc(N/N=C/C(Cl)=C/c2ccccc2)n1,,inactive: -1.03%
O=C(Nc1ccc(-c2nc3cc(Cl)ccc3o2)cc1)C1CCCO1 (stereo not given),"inconclusive [activator, single point]",
O=C(N/N=C/c1ccco1)c1ccccc1OCc1ccc(Br)cc1,"inconclusive [activator, partial curve, poor fit]",
Cc1noc(C)c1CSc1nc2ccccc2c(=O)n1-c1ccccc1,active: 7.31 µM,
